Measurements: publication PMC4336329 (PLoS ONE, 2015)
About 14,000 (4.5%) of roughly 310,000 compounds showed an effect of 50% or more. Effects have a minus sign here. The list shows a part of the results.

What follows are compounds tested against human ether-à-go-go-related gene (hERG) potassium channel (human, UniProt Q12809) (assay: primary screen, population patch clamp on CHO cells stably expressing hERG).
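Further: peak tail current of the secondary pulse compared with the same well before compound.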

human ether-à-go-go-related gene (hERG) potassium channel, sequence (Q12809 whole entry, looked up): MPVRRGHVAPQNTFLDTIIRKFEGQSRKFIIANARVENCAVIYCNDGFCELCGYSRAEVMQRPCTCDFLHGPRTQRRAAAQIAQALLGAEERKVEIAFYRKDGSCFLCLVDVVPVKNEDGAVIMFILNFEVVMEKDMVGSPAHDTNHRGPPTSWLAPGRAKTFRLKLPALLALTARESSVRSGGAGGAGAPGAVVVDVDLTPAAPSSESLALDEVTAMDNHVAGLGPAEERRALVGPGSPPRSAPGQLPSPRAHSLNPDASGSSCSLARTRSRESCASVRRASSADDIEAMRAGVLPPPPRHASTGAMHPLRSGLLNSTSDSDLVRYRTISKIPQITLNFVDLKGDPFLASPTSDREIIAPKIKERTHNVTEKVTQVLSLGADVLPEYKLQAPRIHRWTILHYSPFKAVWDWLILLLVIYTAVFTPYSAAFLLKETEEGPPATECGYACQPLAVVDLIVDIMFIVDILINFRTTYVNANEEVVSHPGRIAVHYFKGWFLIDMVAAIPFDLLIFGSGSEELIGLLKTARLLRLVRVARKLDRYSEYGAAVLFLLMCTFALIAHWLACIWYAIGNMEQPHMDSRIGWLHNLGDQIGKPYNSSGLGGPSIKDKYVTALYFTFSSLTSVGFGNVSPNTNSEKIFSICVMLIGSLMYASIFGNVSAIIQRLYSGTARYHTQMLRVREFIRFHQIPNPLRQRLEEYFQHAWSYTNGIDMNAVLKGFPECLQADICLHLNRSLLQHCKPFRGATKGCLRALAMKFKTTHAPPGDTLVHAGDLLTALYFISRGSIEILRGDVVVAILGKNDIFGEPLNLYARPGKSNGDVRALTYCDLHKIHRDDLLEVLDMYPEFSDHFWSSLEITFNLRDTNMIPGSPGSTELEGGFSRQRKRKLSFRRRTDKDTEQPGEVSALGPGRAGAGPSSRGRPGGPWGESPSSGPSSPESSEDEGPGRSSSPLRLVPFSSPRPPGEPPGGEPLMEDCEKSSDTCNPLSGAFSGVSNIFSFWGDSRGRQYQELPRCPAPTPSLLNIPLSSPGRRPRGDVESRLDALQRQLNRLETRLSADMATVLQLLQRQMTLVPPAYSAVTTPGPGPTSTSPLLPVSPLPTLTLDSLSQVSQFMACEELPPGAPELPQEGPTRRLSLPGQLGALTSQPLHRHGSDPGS

| Compound | hERG current change (%, negative = inhibition) at 10uM |
| --- | --- |
| CCc1ccccc1NC1=NCC(=O)N1C1CCCC1.Cl | 12.8% |
| CCCCNC(=O)c1ccc2c(c1)N(CC)C(=O)c1ccccc1S2(=O)=O | -16.4% |
| COc1ccc(C(=O)OCC(=O)Nc2cc(C)c(C)cc2[N+](=O)[O-])cc1 | -0.544% |
| O=C(CCCCCN1C(=O)c2cccc3cccc(c23)C1=O)NCc1cccnc1 | 13.1% |
| COc1ccc(S(=O)(=O)N2CCN(Cc3ccc(OC)c(OC)c3)CC2)cc1 | -8.52% |
| CC(C)c1ccc2[nH]c3nc(SCC(=O)NC4CC4)nnc3c2c1 | -20.6% |
| CCOc1ccc(C2C(=O)N(C3CCCCC3)CC(=O)N2CC2CCCO2)cc1OC (stereo not drawn) | -3.67% |
| C/C(=N\NC(=S)NCc1ccccc1)c1ccc2ccccc2c1 | 15.9% |
| CN(C1=NS(=O)(=O)c2ccccc21)c1ccc(OC(=O)c2ccncc2)cc1 | -9.07% |
| C[C@@H]1CC2[C@@H]3CC[C@H]4CC(=O)CC[C@]4(C)C3=CC[C@]2(C)[C@@]1(O)C(=O)CO (stereo partly drawn) | 8.04% |
| COC(=O)c1sc(-c2ccc(Cl)cc2)cc1NC(=O)/C=C/C(=O)O | 10.3% |
| COc1ccccc1NS(=O)(=O)c1cc([N+](=O)[O-])ccc1N/N=C/c1c[nH]c2ccccc12 | 15.5% |
| CC(C)Oc1ccc(CNC(=O)Cn2ccc3cc(S(=O)(=O)N4CCCC4)ccc32)cc1 | 22.7% |
| CSc1ccc(CN(C)Cc2nc3ccccc3c(=O)[nH]2)cc1 | -26.2% |
| COc1ccc(NS(=O)(=O)c2ccc(C)c(C(=O)O)c2)cc1 | 1.54% |
| Cc1ccc(S(=O)(=O)CC(O)COc2ccc(F)cc2Cl)cc1 (stereo not drawn) | -4.12% |
| CS(=O)(=O)Nc1ccccc1N=C(c1ccccc1)c1ccccc1 | -0.393% |
| O=C(Cc1ccccc1)Nc1scc(-c2ccccc2)c1C(=O)N1CCOCC1 | -57.4% |
| Cc1c(-c2ccc(Cl)cc2)[n+](=O)c2c(n1[O-])CCCC2 | 2.47% |
| CCOc1ccccc1OCCn1ncc2ccc(OC)c(OC)c2c1=O | 5.92% |
| CCOc1ccc(CC(=O)OCc2cc(=O)n3cc(Br)ccc3n2)cc1 | -6.01% |
| O=C(Nc1nnc(-c2ccco2)s1)c1ccccc1 | 8.26% |

| Compound | hERG current change (%, negative = inhibition) at 10uM |
| --- | --- |
| COc1ccccc1NC(=O)c1sc2ncn(CC(=O)Nc3ccccc3)c(=O)c2c1C | 17.5% |
| Cc1nnc(SC(C)C(=O)N(C)C2CCCCC2)n1N (stereo not drawn) | 8.58% |
| CCOC(=O)C(=O)Nc1sc(C(=O)N(CC)CC)c(C)c1C#N | 16.7% |
| O=C(CN1CCN(S(=O)(=O)c2ccc(F)cc2)CC1)N1CCOCC1 | 9.61% |
| CC(C)CN(C(=O)Cn1c(=O)cnc2ccccc21)C1CCS(=O)(=O)C1 (stereo not drawn) | 1.99% |
| CCCCCSc1nc2c(c(=O)[nH]c(=O)n2C)n1CC | 4.59% |
| CCSc1nnc(NC(=O)C(C)(C(F)(F)F)C(F)(F)F)s1 | -1.54% |
| O=S(=O)(c1ccc(SCCOc2cccc(Br)c2)nc1)N1CCCC1 | 5.18% |
| O=C(CCSCCC(=O)NCc1ccco1)NCc1ccco1 | 6.38% |
| CC(=O)N(C)c1ccc(OCC(O)Cn2c(C)nc3ccccc32)cc1 (stereo not drawn) | 0.698% |
| COc1ccc(Nc2nc(-c3sc(C)nc3C)cs2)c(OC)c1 | 10.4% |
| O=C(CN1CCN(c2ccccc2O)CC1)Nc1ccc2c(c1)OCCCO2 | -7.8% |
| C/C(CCN1CCc2nc(-c3ccccc3)c(-c3ccccc3)cc2C1)=N\OC[C@@H](C)[C@H](OCc1ccccc1)C(C)C | 17.1% |
| Fc1ccc(CN2CCC(Cc3ccccc3)CC2)cc1F | 2.03% |
| O=[N+]([O-])c1cccc(NC(=S)Nc2nc(-c3ccccc3Cl)cs2)c1 | 11.5% |
| CSCCC(NS(=O)(=O)c1ccc(C)cc1)C(=O)NNC(=O)c1csc(N2CCOCC2)n1 (stereo not drawn) | 16.9% |
| Cc1cccc(C2c3[nH]c4ccccc4c3CCN2C(=O)CN2CCOC2=O)n1 (stereo not drawn) | 7.2% |
| Cc1cccc(N(CC(=O)Nc2c(C)n(C)n(-c3ccccc3)c2=O)S(C)(=O)=O)c1 | 1.12% |
| COC(=O)C1=C(C)n2nnnc2NC1c1cc2ccccc2o1 (stereo not drawn) | -14.3% |
| CCOc1cc(C(=S)N2CCOCC2)ccc1OS(=O)(=O)c1ccccc1[N+](=O)[O-] | 8.98% |
| COc1ccccc1NC(=O)c1ccc(NS(C)(=O)=O)cc1 | -21.8% |
| c1ccc(-c2[nH]ncc2-c2nc3ccccc3[nH]2)cc1 | -11% |

| Compound | hERG current change (%, negative = inhibition) at 10uM |
| --- | --- |
| Cc1nc2ccccc2c(=O)n1NC(=O)c1ccccc1Br | 4.82% |
| CC(=O)NCC(=O)OCN1C(=O)c2ccccc2C1=O | 1.31% |
| Cc1cccc(OCCNC(=S)NC(=O)c2cncc(Br)c2)c1 | 16.9% |
| COc1ccccc1-c1coc2c(CN3C(C)CCCC3C)c(O)ccc2c1=O (stereo not drawn) | 11.1% |
| CC(C)(C)c1ccc(CSc2cnn(C(C)(C)C)c(=O)c2Cl)cc1 | 18% |
| CSc1ncccc1C(=O)OCC(=O)c1ccc2c(c1)NC(=O)CO2 | 15.3% |
| O=C(CN1CCN(S(=O)(=O)c2ccccc2)CC1)NC(=O)NCc1ccco1 | -11.4% |
| Cc1ccccc1OCC(=O)N/N=C/c1cccc(Oc2ccc([N+](=O)[O-])cc2[N+](=O)[O-])c1 | 5.59% |
| COCCN(CCOC)C(=O)C12CCC(C)(C(=O)C1)C2(C)C (stereo not drawn) | -2.02% |
| N/C(=N\OC(=O)c1ccccc1F)c1cccc([N+](=O)[O-])c1 | 16.1% |
| CCOC(=O)CCCCCNC(=O)c1c(O)[nH]c(=O)[nH]c1=O | 17.7% |
| CC12CCC(=O)N1C(C(=O)OCC(=O)Nc1ccc(Cl)c(Cl)c1)CS2 (stereo not drawn) | -17.1% |
| O=C(CSc1nc(=O)n2ccccc2n1)NC1CCCCC1 | 7.26% |
| Cc1onc(C(=O)NCCc2ccccc2)c1[N+](=O)[O-] | 6.73% |
| CCOC(=O)C1=C(C)OC(N)=C(C#N)C1c1cc2c(cc1Br)OCO2 (stereo not drawn) | -0.548% |
| NS(=O)(=O)c1ccc(CCNC(=O)COC(=O)CCSc2ccc(Cl)cc2)cc1 | -18.5% |
| O=C(COC(=O)Cc1ccc(Cl)cc1)Nc1cc(S(=O)(=O)N2CCOCC2)ccc1N1CCCC1 | -15.8% |
| Cc1nc(Br)c(Br)c(C)c1Br | 14.4% |
| CC(C)(C)NC(=O)C1CC1(c1ccccc1)c1ccccc1 (stereo not drawn) | 31.4% |
| CN(C)CCNC(=O)c1cc(Sc2ccc(F)cc2)nc2ccccc12 | -72.5% |
| N#C/C(=C\c1cc([N+](=O)[O-])ccc1Cl)C(N)=O | 25.2% |
| COc1ccc(N(C)S(=O)(=O)c2ccc3c(c2)NC(=O)CC(=O)N3)c(OC)c1 | 14.7% |

| Compound | hERG current change (%, negative = inhibition) at 10uM |
| --- | --- |
| CCOc1cc(CNCCSc2nnnn2C)cc(Br)c1OCc1ccc(F)cc1.Cl | -6.83% |
| CCCNC(=O)C(Cc1ccccc1)NC(=O)c1ccc(-c2ccccc2)cc1 (stereo not drawn) | -17.2% |
| O=C(NCc1cccs1)C1CCCN(S(=O)(=O)c2ccc3c(c2)OCO3)C1 (stereo not drawn) | -12.7% |
| Cc1cccn2c(=O)c(/C=C(\C#N)C(=O)NC3CCS(=O)(=O)C3)c(N3CCC(C(N)=O)CC3)nc12 (stereo not drawn) | 7.15% |
| Cc1ccc(-c2nc(CS(=O)CC(=O)N3CCN(c4ccc(F)cc4)CC3)c(C)o2)cc1 (stereo not drawn) | -42% |
| O=C(Cc1ccc2c(c1)OCCO2)Nc1ccc(Cl)c(S(=O)(=O)N2CCOCC2)c1 | -38.3% |
| COc1ccc(NC(=O)CSc2nnc(C3CC3)n2N)cc1 | -0.249% |
| N#Cc1nc(-c2ccccc2F)oc1NCCN1CCOCC1 | 15.2% |
| Nc1ccc(C(CC(=O)O)n2cccc2)cc1 (stereo not drawn) | 9.94% |
| O=C(Cn1cncn1)c1ccccc1Br | 24.6% |
| Cc1cc(Br)ccc1SCC(=O)OCC(=O)NCc1ccc2c(c1)OCO2 | 17.5% |
| COc1cc(/C=N/NC(=O)C2CCN(CC(O)COCc3ccccc3)CC2)ccc1O (stereo not drawn) | -78.1% |
| CCN(CC)c1ccc(Nc2nc(-c3cccnc3)cs2)cc1 | 17.6% |
| CCCn1c(CC)nc([N+](=O)[O-])c1Sc1ccc(C)cc1 | -0.08% |
| COc1cc2c(cc1OC)CN(C(=O)C1CCCN(C(=O)c3ccc(Cl)cc3)C1)CC2 (stereo not drawn) | -8.98% |
| CCC(=NCCC(c1ccccc1)c1ccccc1)c1c(O)[nH]c(=O)[nH]c1=O | -25.8% |
| O=C(NCc1cccnc1)c1c[nH]c2cc3c(cc2c1=O)OCCO3 | 4.87% |
| C=CCSc1nc2sc3c(c2c(=O)n1-c1ccc(C)cc1)CCN(C)C3 | 17.7% |
| CCC(=O)N(Cc1cc(=O)[nH]c2ccccc12)c1ccccc1C | -13.5% |
| O=C1NC2(CCCC2)Oc2ccccc21 | 19% |
| COc1ccccc1C1=NOC(Cn2c(NCCOCCO)nc3c2c(=O)n(C)c(=O)n3C)C1 (stereo not drawn) | -3.95% |
